Literature values in patent US12492243B2, “DNA antibody constructs for use against Pseudomonas aeruginosa” (priority 2016, dated 2025).

Test system: P. aeruginosa clinical isolates
Settings: diverse serotypes, multiple type 3 secretion phenotypes, multiple infection sites

B1: anti-PcrV: bioprocessed anti-Pseudomonal IgG mAb, single specificity for P. aeruginosa PcrV protein (antibody)
heavy: EVQLLESGGGLVQPGGSLRLSCAASGFTFSSYAMNWVRQAPGKGLEWVSAITMSGITAYYTDDVKGRFTISRDNSKNTLYLQMNSLRAEDTAVYYCAKEEFLPGTHYYYGMDVWGQGTTVTVSS[letters of human IgG1 constant region omitted]
light: [letters of about 200 residues omitted]
modifications: amino acid sequence of pGX9308 V2L2MD heavy chain; amino acid sequence of pGX9309 V2L2MD light chain
notes: bioprocessed anti-Pseudomonal IgG mAb, single specificity for P. aeruginosa PcrV protein
**Q.** Which “protection against P. aeruginosa clinical isolates” value does the source give for B1 here?
**A.** protective
